Consider 24 sequences from the supplement of paper PMC11417369.

± gives the standard deviation of the averaged measurements. The list shows a part of the results.

The test system of the test is PfAP2-LT AP2 domain (GST-tagged). As to the kind of experiment: gcPBM binding intensity (ln(normalized median fluorescence intensity)); higher = stronger DNA binding. In short, it runs like this:
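Probes on an Agilent 4 × 180k array were primer-extended, double-stranded and 36 bp long, taken from intergenic genomic regions, with negative controls added. GST-tagged P. falciparum DNA-binding domains from E. coli, about 25 μg on average, were applied to the array for 1 h in 1× PBS containing 1% milk, 0.2 mg/ml BSA, 0.5% salmon testes DNA and 0.03% Triton X-100. Binding intensity, obtained after Alexa488 anti-GST antibody detection and a 488 nm scan, is the highest Masliner-normalised natural-log median intensity across replicate spots of either probe orientation.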
As for “CGTACATAATTTTAATCACACACAAACAAACACATA [CACACA_site7947]”, the “gcPBM binding intensity (ln)” value came to 9.42 ± 0.34. Turning to “AAAAAAAGAAATAATAAAAAATATATATATATATAT [GTGCAC_negctrl_site702]”, the “gcPBM binding intensity (ln)” value amounted to 9.31 ± 0.53.

For “TGTTTTGTTGTGTATTGTACTAATATAAATATATAA [XGTACX_site1852]”, the “gcPBM binding intensity (ln)” value was determined as 8.68 ± 0.31. In the case of “TTTTATGATTGACACACACACAAAAAAAAAAAAAAA [CACACA_site7860]” it was 8.89 ± 0.42. In the case of “TAAAAAAACGCACTCGTACACACATATTTTCTTTCT [CACACA_site3090]” it was 9.02 ± 0.41; in that of “TTTGAAATATATTTAGTGCATATATATTGATTATAA [GTGCAC_site9604]”, 8.39 ± 0.38. In the case of “ATGAATATAATGAAGTGTACATAAAAATAATAAATA [XGTACX_site2481]” it was 8.96 ± 0.5. For the sequence “ATCTAGTACATACATACACACAACAATGTTATGAGA [CACACA_site3989]”, the “gcPBM binding intensity (ln)” value amounted to 9.06 ± 0.36. In the case of “CAATTTTGCCCTTCCTGTACATATATTGAAAAATAT [XGTACX_site6388]” it was 8.54 ± 0.49; in that of “TTAAATAATATTAGCCGTACAATTTAAAGATAATAA [XGTACX_site8503]”, 8.52 ± 0.35.

As to “GAAAGGGCAGGAACTATTAATACACTGATCGATAAG [CACACA_negctrl_site1458]”, the “gcPBM binding intensity (ln)” value stood at 8.94 ± 0.43. The result for “AATTATAGCTGTATCTGTACGCATTTATTTATAGAC [XGTACX_site5959]” reads 8.9 ± 0.27; that for “TTTAATACTTTATATGCATGCAGAGAAAAATGCTTG [TGCATGCA_site286]”, 8.7 ± 0.22; that for “AAAAAAAAGTATGATTCTAAATTTATGTATATATAA [GTGCAC_negctrl_site669]”, 8.32 ± 0.46.

Turning to “CTTATACATAAATTTTGTACACACAAAAAAAAAAAA [XGTACX_site2665]”, the “gcPBM binding intensity (ln)” value is 8.91 ± 0.52. The result for “TAAAAATATAGGTATACACACATATAAATATAAATA [CACACA_site7785]” reads 9.03 ± 0.49. The result for “GATTTTAAAATAATTACACACTTGATTATGTCCAAA [CACACA_site3491]” reads 8.68 ± 0.4; that for “ATAAATATAAATATATGTACATATATATATATATAT [XGTACX_site7433]”, 9.6 ± 0.13. For “TAAATATTTATAAACACACAAATATTTATATTTATA [CACACA_site6166]”, the “gcPBM binding intensity (ln)” value was 8.53 ± 0.37. In the case of “AAATAGAGAAATACAAGTACATATCAAACCAATCTA [XGTACX_site2756]” it was 8.99 ± 0.38. The result for “AGGGACATATATATCACACACAAAAATTAGTCCCTT [CACACA_site2778]” reads 9.39 ± 0.44; that for “TTTATTTATTAATACACACACACACGCCCACAAAAT [CACACA_site6253]”, 9.995 ± 0.05; that for “AAATATTACCATGTGAAAATTTTACTGCAACATGAA [TGCATGCA_negctrl_site609]”, 8.73 ± 0.45. The result for “TAAAAATTTACATGTTGTACATATAATTATATAATC [XGTACX_site4577]” reads 8.56 ± 0.49.
